# Results reported in the supplement of paper PMC8728848.
# The list shows a part of the results.
# Experiments:
# Test in all cases: glycan array binding signal (z-score within array); higher = stronger binding
# Settings in all cases: glycan notation: IUPAC condensed, linker removed
# [1] = target: Neu5Ac(a2-3)Gal6S(b1-4)[Fuc(a1-3)]GlcNAc
# How it was run: (§1)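 Glycan array data came from 3228 arrays in the Consortium for Functional Glycomics database, and only arrays with an available protein sequence were kept. Glycan names were put into IUPAC-condensed notation, and columns mapping to the same glycan were averaged. The binding signal is a within-array Z-score, averaged across arrays of one protein sequence run at different concentrations or buffers and across linkers. A negative Z-score can be read as non-binding.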
# Neu5Ac(a2-3)GalNAc = target: Neu5Ac(a2-3)GalNAc
# How it was run: as §1
# [2] = target: Neu5Ac(a2-3)GalNAc(b1-4)GlcNAc
# How it was run: as §1
# [3] = target: Neu5Ac(a2-3)[GalNAc(b1-4)]Gal(b1-4)Glc
# How it was run: as §1
# [4] = target: Neu5Ac(a2-3)[GalNAc(b1-4)]Gal(b1-4)GlcNAc
# How it was run: as §1
# [5] = target: Neu5Ac(a2-3)[GalNAc(b1-4)]Gal(b1-4)GlcNAc(b1-3)GalNAc
# How it was run: as §1
# [6] = target: Neu5Ac(a2-3)[Neu5Ac(a2-6)]GalNAc
# How it was run: as §1
# Neu5Ac(a2-6)Gal = target: Neu5Ac(a2-6)Gal
# How it was run: as §1
# [7] = target: Neu5Ac(a2-6)Gal(b1-3)GlcNAc(b1-3)[Gal(b1-4)GlcNAc(b1-6)]Gal(b1-4)Glc
# How it was run: as §1
# Neu5Ac(a2-6)Gal(b1-4)Glc = target: Neu5Ac(a2-6)Gal(b1-4)Glc
# How it was run: as §1
# [8] = target: Neu5Ac(a2-6)Gal(b1-4)GlcNAc
# How it was run: as §1
# [9] = target: Neu5Ac(a2-6)Gal(b1-4)GlcNAc(b1-2)Man
# How it was run: as §1
# [10] = target: Neu5Ac(a2-6)Gal(b1-4)GlcNAc(b1-2)Man(a1-3)Man(b1-4)GlcNAc(b1-4)GlcNAc
# How it was run: as §1
# [11] = target: Neu5Ac(a2-6)Gal(b1-4)GlcNAc(b1-2)Man(a1-3)[Gal(b1-4)GlcNAc(b1-2)Man(a1-6)]Man(b1-4)GlcNAc(b1-4)GlcNAc
# How it was run: as §1
# [12] = target: Neu5Ac(a2-6)Gal(b1-4)GlcNAc(b1-2)Man(a1-3)[GlcNAc(b1-2)Man(a1-6)]Man(b1-4)GlcNAc(b1-4)GlcNAc
# How it was run: as §1
# [13] = target: Neu5Ac(a2-6)Gal(b1-4)GlcNAc(b1-2)Man(a1-3)[GlcNAc(b1-2)Man(b1-4)GlcNAc(b1-2)Man(a1-6)]Man(b1-4)GlcNAc(b1-4)GlcNAc
# How it was run: as §1
# [14] = target: Neu5Ac(a2-6)Gal(b1-4)GlcNAc(b1-2)Man(a1-3)[GlcNAc(b1-4)][Neu5Ac(a2-6)Gal(b1-4)GlcNAc(b1-2)Man(a1-6)]Man(b1-4)GlcNAc(b1-4)GlcNAc
# How it was run: as §1
# [15] = target: Neu5Ac(a2-6)Gal(b1-4)GlcNAc(b1-2)Man(a1-3)[Man(a1-6)]Man(b1-4)GlcNAc(b1-4)GlcNAc
# How it was run: as §1
# [16] = target: Neu5Ac(a2-6)Gal(b1-4)GlcNAc(b1-2)Man(a1-3)[Neu5Ac(a2-3)Gal(b1-4)GlcNAc(b1-2)Man(a1-6)]Man(b1-4)GlcNAc(b1-4)GlcNAc
# How it was run: as §1
# [17] = target: Neu5Ac(a2-6)Gal(b1-4)GlcNAc(b1-2)Man(a1-3)[Neu5Ac(a2-6)Gal(b1-4)GlcNAc(b1-2)Man(a1-6)]Man(b1-4)GlcNAc(b1-4)GlcNAc
# How it was run: as §1
# [18] = target: Neu5Ac(a2-6)Gal(b1-4)GlcNAc(b1-2)Man(a1-3)[Neu5Ac(a2-6)Gal(b1-4)GlcNAc(b1-2)Man(a1-6)]Man(b1-4)GlcNAc(b1-4)[Fuc(a1-6)]GlcNAc
# How it was run: as §1
# [19] = target: Neu5Ac(a2-6)Gal(b1-4)GlcNAc(b1-2)Man(a1-6)Man(b1-4)GlcNAc(b1-4)GlcNAc
# How it was run: as §1
# [20] = target: Neu5Ac(a2-6)Gal(b1-4)GlcNAc(b1-2)Man(a1-6)[Gal(b1-4)GlcNAc(b1-2)Man(a1-3)]Man(b1-4)GlcNAc(b1-4)GlcNAc
# How it was run: as §1
# [21] = target: Neu5Ac(a2-6)Gal(b1-4)GlcNAc(b1-2)Man(a1-6)[GlcNAc(b1-2)Man(a1-3)]Man(b1-4)GlcNAc(b1-4)GlcNAc
# How it was run: as §1
# [22] = target: Neu5Ac(a2-6)Gal(b1-4)GlcNAc(b1-2)Man(a1-6)[Man(a1-3)]Man(b1-4)GlcNAc(b1-4)GlcNAc
# How it was run: as §1
# [23] = target: Neu5Ac(a2-6)Gal(b1-4)GlcNAc(b1-2)[Neu5Ac(a2-6)Gal(b1-4)GlcNAc(b1-4)]Man(a1-3)[GlcNAc(b1-4)][Neu5Ac(a2-6)Gal(b1-4)GlcNAc(b1-2)[Neu5Ac(a2-6)Gal(b1-4)GlcNAc(b1-6)]Man(a1-6)]Man(b1-4)GlcNAc(b1-4)GlcNAc
# How it was run: as §1
# [24] = target: Neu5Ac(a2-6)Gal(b1-4)GlcNAc(b1-2)[Neu5Ac(a2-6)Gal(b1-4)GlcNAc(b1-4)]Man(a1-3)[GlcNAc(b1-4)][Neu5Ac(a2-6)Gal(b1-4)GlcNAc(b1-4)Man(a1-6)]Man(b1-4)GlcNAc(b1-4)GlcNAc
# How it was run: as §1
# [25] = target: Neu5Ac(a2-6)Gal(b1-4)GlcNAc(b1-2)[Neu5Ac(a2-6)Gal(b1-4)GlcNAc(b1-6)]Man(a1-6)[Neu5Ac(a2-6)Gal(b1-4)GlcNAc(b1-2)Man(a1-3)][GlcNAc(b1-4)]Man(b1-4)GlcNAc(b1-4)GlcNAc
# How it was run: as §1
# [26] = target: Neu5Ac(a2-6)Gal(b1-4)GlcNAc(b1-3)Gal(b1-3)GlcNAc
# How it was run: as §1
# [27] = target: Neu5Ac(a2-6)Gal(b1-4)GlcNAc(b1-3)Gal(b1-4)GlcNAc
# How it was run: as §1
binder,measurement,setting,value
"Epa1-NP (Candida glabrata), Q6VBJ0 (protein) MILNPALFLNKCVCIYTTLILLLLTNGGYATSSNDISLASKDPTTFPLGCSPDITTPKKGLSMELYSYDFRKKGSYPCWDAAYLDPNYPRTGYKSHRLLAKVDGVTGNINFYYHATKGCTPQLGHLPASYNYPKPLTMTNFTMLLYGYFRPKVTGFHTFTISADDLLFVNFGAGNAFDCCRRDSSADHFGNYQAYAIWGSKTAKDELTVHLDAGVYYPIRLFYNNREYDGALSFTFKTESNENTVSDFSEYFFSLDDTEEGCPGLISYDSSCASVKTSKIIGIDYHTETPNENLVPITKTIYHLGIPCTGTTTTPLCGSGFYDPLANKCVTINTSSTSSVTKTTSHTTSKEVSFHSSISSQKTLIPKSIPSPYGPIKSQSIPTEMETSSEISSSEYAFSDVISTPSHSPYTKKHSSLNSSSYTSTVIHSLTSYSISQGIFSTSLSEQNITSKSSTDKFSTATSMSNNITQSSIIISQFSTNNENYTTTSMHTSSDKISTETLNNSISTTTSILFSNSSTILKNNTTIISSDKDTHYHPVNPTIVCSTNKTEIICASITQPSISNSNNHWSSSVLKFNSTTVRSTLPSSAGSNETSINVPFSSSTESNTSTSSTSTSNSKMVRSTLPSSAGSNETSISVPFSSSTESNTSTSSTSTSNSKMVRSTLPSSAGSNETSINVPFSSSTESNTSTSSTSTSNSKTVRSTPFSSAGIIMTSLSQRNNKSASSYASSNSKCYNTADSCRKVHSTPSYLLTSSYTSEGVDYDCSLVSTKLKINDTNCVNNKHTTKSCLKTSVTTTIPTLEIKTARKSSSNTIGLHSYPTSSPNKSISSAPIIGYISSFKTIKTASPSYQTSDLTTITTITSLNNPGSTAVENTHESNDKSRKTSSNDISSKHSVIKETKDAVESSNKSHQTNTLKCSSIIIASSSHNSYESLGGTTLTLTLSKVYSPQNNDTLPFLEISEVNPSRTVLPESSKMMQYLTSTEERNKTARNTIATNIVSISTFHFEGEGNAIRMGYTQLLLMLIGIIVMNIGT",glycan array binding signal (z-score),[1],-0.312
same,glycan array binding signal (z-score),Neu5Ac(a2-3)GalNAc,-0.329
same,glycan array binding signal (z-score),[2],-0.338
same,glycan array binding signal (z-score),[3],-0.329
same,glycan array binding signal (z-score),[4],-0.334
same,glycan array binding signal (z-score),[5],-0.305
same,glycan array binding signal (z-score),[6],-0.344
same,glycan array binding signal (z-score),Neu5Ac(a2-6)Gal,-0.276
same,glycan array binding signal (z-score),[7],0.296
same,glycan array binding signal (z-score),Neu5Ac(a2-6)Gal(b1-4)Glc,-0.276
same,glycan array binding signal (z-score),[8],-0.319
same,glycan array binding signal (z-score),[9],-0.288
same,glycan array binding signal (z-score),[10],-0.272
same,glycan array binding signal (z-score),[11],-0.289
same,glycan array binding signal (z-score),[12],-0.257
same,glycan array binding signal (z-score),[13],-0.296
same,glycan array binding signal (z-score),[14],-0.292
same,glycan array binding signal (z-score),[15],-0.28
same,glycan array binding signal (z-score),[16],-0.287
same,glycan array binding signal (z-score),[17],-0.318
same,glycan array binding signal (z-score),[18],-0.283
same,glycan array binding signal (z-score),[19],-0.267
same,glycan array binding signal (z-score),[20],-0.033
same,glycan array binding signal (z-score),[21],-0.261
same,glycan array binding signal (z-score),[22],-0.264
same,glycan array binding signal (z-score),[23],-0.288
same,glycan array binding signal (z-score),[24],-0.286
same,glycan array binding signal (z-score),[25],-0.289
same,glycan array binding signal (z-score),[26],-0.282
same,glycan array binding signal (z-score),[27],-0.339
